# Measured values reported in the supplement of paper PMC8728848.
# This is one part of the list.
# Tests used:
# Assay in all cases: glycan array binding signal (z-score within array); higher = stronger binding
# Details in all cases: glycan notation: IUPAC condensed, linker removed
# [1] = biological target: GlcNAc(b1-2)Gal(b1-3)GalNAc
# Outline: (§1)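 Arrays were curated from the Consortium for Functional Glycomics database, 3228 in total, and kept only where the protein sequence was available. Binding is expressed as a within-array Z-score. This score was averaged across arrays of the same protein sequence at different concentrations or buffers and across linkers, and negative values can be read as non-binding.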
# [2] = biological target: GlcNAc(b1-2)Man(a1-3)[GlcNAc(b1-2)Man(a1-6)]Man(b1-4)GlcNAc(b1-4)GlcNAc
# Outline: as §1
# [3] = biological target: GlcNAc(b1-2)Man(a1-3)[GlcNAc(b1-2)Man(a1-6)]Man(b1-4)GlcNAc(b1-4)[Fuc(a1-6)]GlcNAc
# Outline: as §1
# [4] = biological target: GlcNAc(b1-2)Man(a1-3)[GlcNAc(b1-4)][GlcNAc(b1-2)Man(a1-6)]Man(b1-4)GlcNAc(b1-4)GlcNAc
# Outline: as §1
# [5] = biological target: GlcNAc(b1-2)Man(a1-3)[GlcNAc(b1-4)][GlcNAc(b1-2)Man(a1-6)]Man(b1-4)GlcNAc(b1-4)[Fuc(a1-6)]GlcNAc
# Outline: as §1
# [6] = biological target: GlcNAc(b1-2)[GlcNAc(b1-4)]Man(a1-3)[GlcNAc(b1-2)Man(a1-6)]Man(b1-4)GlcNAc(b1-4)GlcNAc
# Outline: as §1
# [7] = biological target: GlcNAc(b1-2)[GlcNAc(b1-4)]Man(a1-3)[GlcNAc(b1-4)][GlcNAc(b1-2)Man(a1-6)]Man(b1-4)GlcNAc(b1-4)GlcNAc
# Outline: as §1
# [8] = biological target: GlcNAc(b1-2)[GlcNAc(b1-4)]Man(a1-3)[GlcNAc(b1-4)][GlcNAc(b1-2)[GlcNAc(b1-6)]Man(a1-6)]Man(b1-4)GlcNAc(b1-4)GlcNAc
# Outline: as §1
# [9] = biological target: GlcNAc(b1-2)[GlcNAc(b1-4)]Man(a1-3)[GlcNAc(b1-4)][GlcNAc(b1-2)[GlcNAc(b1-6)]Man(a1-6)]Man(b1-4)GlcNAc(b1-4)[Fuc(a1-6)]GlcNAc
# Outline: as §1
# [10] = biological target: GlcNAc(b1-2)[GlcNAc(b1-6)]Man(a1-6)[GlcNAc(b1-2)Man(a1-3)]Man(b1-4)GlcNAc(b1-4)GlcNAc
# Outline: as §1
# [11] = biological target: GlcNAc(b1-2)[GlcNAc(b1-6)]Man(a1-6)[GlcNAc(b1-2)Man(a1-3)]Man(b1-4)GlcNAc(b1-4)[Fuc(a1-6)]GlcNAc
# Outline: as §1
# [12] = biological target: GlcNAc(b1-2)[GlcNAc(b1-6)]Man(a1-6)[GlcNAc(b1-4)][GlcNAc(b1-2)Man(a1-3)]Man(b1-4)GlcNAc(b1-4)GlcNAc
# Outline: as §1
# GlcNAc(b1-3)Fuc = biological target: GlcNAc(b1-3)Fuc
# Outline: as §1
# GlcNAc(b1-3)Gal = biological target: GlcNAc(b1-3)Gal
# Outline: as §1
# [13] = biological target: GlcNAc(b1-3)Gal(b1-3)GalNAc
# Outline: as §1
# GlcNAc(b1-3)Gal(b1-4)Glc = biological target: GlcNAc(b1-3)Gal(b1-4)Glc
# Outline: as §1
# [14] = biological target: GlcNAc(b1-3)Gal(b1-4)GlcNAc
# Outline: as §1
# [15] = biological target: GlcNAc(b1-3)Gal(b1-4)GlcNAc(b1-2)Man(a1-3)[GlcNAc(b1-3)Gal(b1-4)GlcNAc(b1-2)Man(a1-6)]Man(b1-4)GlcNAc(b1-4)GlcNAc
# Outline: as §1
# [16] = biological target: GlcNAc(b1-3)Gal(b1-4)GlcNAc(b1-2)Man(a1-3)[GlcNAc(b1-3)Gal(b1-4)GlcNAc(b1-2)Man(a1-6)]Man(b1-4)GlcNAc(b1-4)[Fuc(a1-6)]GlcNAc
# Outline: as §1
# [17] = biological target: GlcNAc(b1-3)Gal(b1-4)GlcNAc(b1-2)[GlcNAc(b1-3)Gal(b1-4)GlcNAc(b1-6)]Man(a1-6)[GlcNAc(b1-3)Gal(b1-4)GlcNAc(b1-2)Man(a1-3)]Man(b1-4)GlcNAc(b1-4)GlcNAc
# Outline: as §1
# [18] = biological target: GlcNAc(b1-3)Gal(b1-4)GlcNAc(b1-3)Gal(b1-4)GlcNAc
# Outline: as §1
# [19] = biological target: GlcNAc(b1-3)Gal(b1-4)GlcNAc(b1-3)Gal(b1-4)GlcNAc(b1-2)Man(a1-3)[GlcNAc(b1-3)Gal(b1-4)GlcNAc(b1-3)Gal(b1-4)GlcNAc(b1-2)Man(a1-6)]Man(b1-4)GlcNAc(b1-4)GlcNAc
# Outline: as §1
# [20] = biological target: GlcNAc(b1-3)Gal(b1-4)GlcNAc(b1-3)Gal(b1-4)GlcNAc(b1-2)Man(a1-3)[GlcNAc(b1-3)Gal(b1-4)GlcNAc(b1-3)Gal(b1-4)GlcNAc(b1-2)Man(a1-6)]Man(b1-4)GlcNAc(b1-4)[Fuc(a1-6)]GlcNAc
# Outline: as §1
# [21] = biological target: GlcNAc(b1-3)Gal(b1-4)GlcNAc(b1-3)Gal(b1-4)GlcNAc(b1-2)[GlcNAc(b1-3)Gal(b1-4)GlcNAc(b1-3)Gal(b1-4)GlcNAc(b1-6)]Man(a1-6)[GlcNAc(b1-3)Gal(b1-4)GlcNAc(b1-3)Gal(b1-4)GlcNAc(b1-2)Man(a1-3)]Man(b1-4)GlcNAc(b1-4)[Fuc(a1-6)]GlcNAc
# Outline: as §1
# [22] = biological target: GlcNAc(b1-3)Gal(b1-4)GlcNAc(b1-3)Gal(b1-4)GlcNAc(b1-3)Gal(b1-4)GlcNAc(b1-2)Man(a1-3)[GlcNAc(b1-3)Gal(b1-4)GlcNAc(b1-3)Gal(b1-4)GlcNAc(b1-3)Gal(b1-4)GlcNAc(b1-2)Man(a1-6)]Man(b1-4)GlcNAc(b1-4)GlcNAc
# Outline: as §1
# [23] = biological target: GlcNAc(b1-3)Gal(b1-4)GlcNAc(b1-3)Gal(b1-4)GlcNAc(b1-3)Gal(b1-4)GlcNAc(b1-2)Man(a1-3)[GlcNAc(b1-3)Gal(b1-4)GlcNAc(b1-3)Gal(b1-4)GlcNAc(b1-3)Gal(b1-4)GlcNAc(b1-2)Man(a1-6)]Man(b1-4)GlcNAc(b1-4)[Fuc(a1-6)]GlcNAc
# Outline: as §1
# [24] = biological target: GlcNAc(b1-3)Gal(b1-4)GlcNAc(b1-3)Gal(b1-4)GlcNAc(b1-3)Gal(b1-4)GlcNAc(b1-2)[GlcNAc(b1-3)Gal(b1-4)GlcNAc(b1-3)Gal(b1-4)GlcNAc(b1-3)Gal(b1-4)GlcNAc(b1-6)]Man(a1-6)[GlcNAc(b1-3)Gal(b1-4)GlcNAc(b1-3)Gal(b1-4)GlcNAc(b1-3)Gal(b1-4)GlcNAc(b1-2)Man(a1-3)]Man(b1-4)GlcNAc(b1-4)[Fuc(a1-6)]GlcNAc
# Outline: as §1
# [25] = biological target: GlcNAc(b1-3)Gal(b1-4)GlcNAc(b1-3)Gal(b1-4)GlcNAc(b1-3)Gal(b1-4)GlcNAc(b1-3)Gal(b1-4)GlcNAc(b1-2)Man(a1-3)[GlcNAc(b1-3)Gal(b1-4)GlcNAc(b1-3)Gal(b1-4)GlcNAc(b1-3)Gal(b1-4)GlcNAc(b1-3)Gal(b1-4)GlcNAc(b1-2)Man(a1-6)]Man(b1-4)GlcNAc(b1-4)GlcNAc
# Outline: as §1
# [26] = biological target: GlcNAc(b1-3)Gal(b1-4)GlcNAc(b1-3)Gal(b1-4)GlcNAc(b1-3)Gal(b1-4)GlcNAc(b1-3)Gal(b1-4)GlcNAc(b1-2)Man(a1-3)[GlcNAc(b1-3)Gal(b1-4)GlcNAc(b1-3)Gal(b1-4)GlcNAc(b1-3)Gal(b1-4)GlcNAc(b1-3)Gal(b1-4)GlcNAc(b1-2)Man(a1-6)]Man(b1-4)GlcNAc(b1-4)[Fuc(a1-6)]GlcNAc
# Outline: as §1
# [27] = biological target: GlcNAc(b1-3)Gal(b1-4)GlcNAc(b1-3)Gal(b1-4)GlcNAc(b1-3)Gal(b1-4)GlcNAc(b1-3)Gal(b1-4)GlcNAc(b1-2)[GlcNAc(b1-3)Gal(b1-4)GlcNAc(b1-3)Gal(b1-4)GlcNAc(b1-3)Gal(b1-4)GlcNAc(b1-3)Gal(b1-4)GlcNAc(b1-6)]Man(a1-6)[GlcNAc(b1-3)Gal(b1-4)GlcNAc(b1-3)Gal(b1-4)GlcNAc(b1-3)Gal(b1-4)GlcNAc(b1-3)Gal(b1-4)GlcNAc(b1-2)Man(a1-3)]Man(b1-4)GlcNAc(b1-4)[Fuc(a1-6)]GlcNAc
# Outline: as §1
# [28] = biological target: GlcNAc(b1-3)Gal(b1-4)GlcNAc(b1-3)Gal(b1-4)GlcNAc(b1-3)GalNAc
# Outline: as §1
# [29] = biological target: GlcNAc(b1-3)Gal(b1-4)GlcNAc(b1-3)GalNAc
# Outline: as §1
# [30] = biological target: GlcNAc(b1-3)Gal(b1-4)GlcNAc(b1-3)[GlcNAc(b1-3)Gal(b1-4)GlcNAc(b1-3)]GalNAc
# Outline: as §1
# [31] = biological target: GlcNAc(b1-3)Gal(b1-4)GlcNAc(b1-6)[Gal(b1-3)]GalNAc
# Outline: as §1
# [32] = biological target: GlcNAc(b1-3)Gal(b1-4)GlcNAc(b1-6)[GlcNAc(b1-3)Gal(b1-3)]GalNAc
# Outline: as §1
# [33] = biological target: GlcNAc(b1-3)Gal(b1-4)GlcNAc(b1-6)[GlcNAc(b1-3)]Gal(b1-4)GlcNAc
# Outline: as §1
# GlcNAc(b1-3)GalNAc = biological target: GlcNAc(b1-3)GalNAc
# Outline: as §1
# GlcNAc(b1-3)Man = biological target: GlcNAc(b1-3)Man
# Outline: as §1
# [34] = biological target: GlcNAc(b1-3)[GlcNAc(b1-4)][GlcNAc(b1-6)]GlcNAc
# Outline: as §1
# [35] = biological target: GlcNAc(b1-3)[GlcNAc(b1-6)]Gal(b1-4)GlcNAc
# Outline: as §1
# [36] = biological target: GlcNAc(b1-3)[GlcNAc(b1-6)]GalNAc
# Outline: as §1
# [37] = biological target: GlcNAc(b1-4)Gal(b1-4)GlcNAc
# Outline: as §1
# GlcNAc(b1-4)GlcNAc = biological target: GlcNAc(b1-4)GlcNAc
# Outline: as §1
# [38] = biological target: GlcNAc(b1-4)GlcNAc(b1-4)GlcNAc
# Outline: as §1
# [39] = biological target: GlcNAc(b1-4)GlcNAc(b1-4)GlcNAc(b1-4)GlcNAc(b1-4)GlcNAc
# Outline: as §1
binder,measurement,setting,value
Microvirin-2 (Microcystis aeruginosa) (protein) MPNFSHTCSSINYDPDSTILSAECQARDGEWLPTELRLSDHIGNIDGELQFGDQNFQETCQDCHLEFGDGEQSVWLVCTCQTMDGEWKSTQILLDSQIDNNDSQLEIGGSMPNFSHTCSSINYDPDSTILSAECQARDGEWLPTELRLSDHIGNIDGELQFGDQNFQETCQDCHLEFGDGEQSVWLVCTCQTMDGEWKSTQILLDSQIDNNDSQLEIG,glycan array binding signal (z-score),[1],-0.133
same,glycan array binding signal (z-score),[2],-0.128
same,glycan array binding signal (z-score),[3],-0.121
same,glycan array binding signal (z-score),[4],-0.139
same,glycan array binding signal (z-score),[5],-0.146
same,glycan array binding signal (z-score),[6],-0.139
same,glycan array binding signal (z-score),[7],-0.138
same,glycan array binding signal (z-score),[8],-0.141
same,glycan array binding signal (z-score),[9],-0.146
same,glycan array binding signal (z-score),[10],-0.133
same,glycan array binding signal (z-score),[11],-0.13
same,glycan array binding signal (z-score),[12],-0.137
same,glycan array binding signal (z-score),GlcNAc(b1-3)Fuc,-0.133
same,glycan array binding signal (z-score),GlcNAc(b1-3)Gal,-0.138
same,glycan array binding signal (z-score),[13],-0.123
same,glycan array binding signal (z-score),GlcNAc(b1-3)Gal(b1-4)Glc,-0.144
same,glycan array binding signal (z-score),[14],-0.13
same,glycan array binding signal (z-score),[15],-0.125
same,glycan array binding signal (z-score),[16],0.01
same,glycan array binding signal (z-score),[17],-0.109
same,glycan array binding signal (z-score),[18],-0.145
same,glycan array binding signal (z-score),[19],-0.019
same,glycan array binding signal (z-score),[20],-0.066
same,glycan array binding signal (z-score),[21],-0.125
same,glycan array binding signal (z-score),[22],-0.138
same,glycan array binding signal (z-score),[23],-0.084
same,glycan array binding signal (z-score),[24],-0.116
same,glycan array binding signal (z-score),[25],-0.111
same,glycan array binding signal (z-score),[26],-0.098
same,glycan array binding signal (z-score),[27],-0.11
same,glycan array binding signal (z-score),[28],-0.129
same,glycan array binding signal (z-score),[29],-0.131
same,glycan array binding signal (z-score),[30],-0.126
same,glycan array binding signal (z-score),[31],-0.138
same,glycan array binding signal (z-score),[32],-0.12
same,glycan array binding signal (z-score),[33],-0.135
same,glycan array binding signal (z-score),GlcNAc(b1-3)GalNAc,-0.142
same,glycan array binding signal (z-score),GlcNAc(b1-3)Man,-0.144
same,glycan array binding signal (z-score),[34],-0.136
same,glycan array binding signal (z-score),[35],-0.14
same,glycan array binding signal (z-score),[36],-0.131
same,glycan array binding signal (z-score),[37],-0.137
same,glycan array binding signal (z-score),GlcNAc(b1-4)GlcNAc,-0.134
same,glycan array binding signal (z-score),[38],-0.14
same,glycan array binding signal (z-score),[39],-0.128
